{"source": "paper PMC7819943", "about": "“Rice protein-binding microarrays: a tool to detect cis-acting elements near promoter regions in rice”", "note": "The other results are listed elsewhere or left out.", "data": [{"target": "T1, OsWOX13 (Oryza sativa, UniProt Q5QMM3 1-267)", "T1 sequence": "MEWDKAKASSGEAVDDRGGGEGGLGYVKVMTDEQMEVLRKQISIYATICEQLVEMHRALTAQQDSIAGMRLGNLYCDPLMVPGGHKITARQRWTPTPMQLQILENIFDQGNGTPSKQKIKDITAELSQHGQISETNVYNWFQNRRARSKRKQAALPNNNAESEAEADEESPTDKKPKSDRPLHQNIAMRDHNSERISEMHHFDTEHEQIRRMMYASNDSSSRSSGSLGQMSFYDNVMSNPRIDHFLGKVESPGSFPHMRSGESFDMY", "experiment": "protein-binding microarray (RPBM); PBS, 2% BSA, 51.3 ng/ul salmon testes DNA, 50 uM zinc acetate, 200 nM TF, 25 C, 1 h; high values mean tight binding", "settings": "protein: recombinant; tags: N-terminal polyhistidine and DsRed monomer fusion (pET32a); label: CyDye5-dUTP incorporated in the synthesized complementary strand; 3' TTTTT single-stranded linker to array surface; dsDNA, one strand shown", "procedure,_shortened": "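The binding signal for each feature is its fluorescence intensity in arbitrary units. An Axon 4000B scanner was used to read a custom Agilent array that had been made double-stranded with Cy5-dUTP primer extension, blocked with 2% BSA, incubated at 25 °C for 1 h with 200 nM protein in PBS, 2% BSA, salmon testes DNA and 50 µM zinc acetate, and washed. The protein was an N-terminal polyhistidine–DsRed transcription factor fusion from E. coli BL21-CodonPlus, purified on Ni–NTA.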", "values": [{"sequence": "AATAGACTATAAATTTATAGTAATCGGAGTCCGAACGAAGCGGAGTCACCTAGTGCAG", "binding signal": "7120 fluorescence intensity (a.u.)"}, {"sequence": "ACGCGATTGATCTATCTCCCCTCGTCGCGCCACGACGCGACGGAGTCACCTAGTGCAG", "binding signal": "5630 fluorescence intensity (a.u.)"}, {"sequence": "TCTGATCAGTCCATTGATTACAGAAACCATATGGAATCTGCGGAGTCACCTAGTGCAG", "binding signal": "23200 fluorescence intensity (a.u.)"}, {"sequence": "GAAACTAACTGCCATTCTGCGACAACATGGACGTACAGCTCGGAGTCACCTAGTGCAG", "binding signal": "6040 fluorescence intensity (a.u.)"}, {"sequence": "GGGGAATAATTGTATATATCGTACAAAGCTTACGGAATGTCGGAGTCACCTAGTGCAG", "binding signal": "8630 fluorescence intensity (a.u.)"}, {"sequence": "AAATGACATGATAGGTTAATATGTAATATATCACTTCACACGGAGTCACCTAGTGCAG", "binding signal": "7620 fluorescence intensity (a.u.)"}, {"sequence": "GATTGATTTGATTGATTGCTTGATTGGTTAATTGGTTGATCGGAGTCACCTAGTGCAG", "binding signal": "51600 fluorescence intensity (a.u.)"}, {"sequence": "CTGATGATGAGAAATACCACCAATTTGAGAGGGATTTATGCGGAGTCACCTAGTGCAG", "binding signal": "4660 fluorescence intensity (a.u.)"}, {"sequence": "CAATAATTGATTCTACATATCCACATAATCACTAATTAACCGGAGTCACCTAGTGCAG", "binding signal": "44100 fluorescence intensity (a.u.)"}, {"sequence": "ACATAAATAGATATCAATATGAATCGCTGAACTTTTCGTACGGAGTCACCTAGTGCAG", "binding signal": "16400 fluorescence intensity (a.u.)"}, {"sequence": "TCATTAATTTCATGTCTCCTCTAATTTCCTCCTGAACCCTCGGAGTCACCTAGTGCAG", "binding signal": "12400 fluorescence intensity (a.u.)"}, {"sequence": "AAACTTGATGGAATTCTTTAAATGTTCGATTGCTGGAGAGCGGAGTCACCTAGTGCAG", "binding signal": "16700 fluorescence intensity (a.u.)"}, {"sequence": "CTTGACAGTTCGTGAAACTCGTCCTAAAATCCAAAACCGGCGGAGTCACCTAGTGCAG", "binding signal": "5220 fluorescence intensity (a.u.)"}, {"sequence": "AGTAATAATTTTATCAATTTATTTGTTATATATGCTGTTACGGAGTCACCTAGTGCAG", "binding signal": "45600 fluorescence intensity (a.u.)"}, {"sequence": "TTATTATTTGTATTAATTTATTAGGATTTCTCTCATGCTTCGGAGTCACCTAGTGCAG", "binding signal": "5850 fluorescence intensity (a.u.)"}, {"sequence": "GCTAATCTATGTTATGTCACGTATGTAAAAGGAAGCTTGACGGAGTCACCTAGTGCAG", "binding signal": "3690 fluorescence intensity (a.u.)"}, {"sequence": "GTAATTTTGGTATAATTTAATAACTAAATTTGGTACCTCACGGAGTCACCTAGTGCAG", "binding signal": "12100 fluorescence intensity (a.u.)"}, {"sequence": "TTGCCAATAAATGACTAACTAGGTTTTGGTTACGGAAGTTCGGAGTCACCTAGTGCAG", "binding signal": "5240 fluorescence intensity (a.u.)"}, {"sequence": "GCTAATATGAATATATGATCATCAATCAAGATCAAGCCGTCGGAGTCACCTAGTGCAG", "binding signal": "28700 fluorescence intensity (a.u.)"}, {"sequence": "AATCATTTTCAGTTACAAATTAAATGGTGTTTCAATAGCTCGGAGTCACCTAGTGCAG", "binding signal": "6090 fluorescence intensity (a.u.)"}, {"sequence": "GATAATAATATAATAATTGATCTAATAATGCAGAAATCAACGGAGTCACCTAGTGCAG", "binding signal": "20400 fluorescence intensity (a.u.)"}, {"sequence": "CAATTAATATATGTGTTCTATGATTAAACAAAGTGTGCAACGGAGTCACCTAGTGCAG", "binding signal": "5510 fluorescence intensity (a.u.)"}, {"sequence": "TAGAGTAGATTATCAGATTACAGTAATATAGCTTATAGATCGGAGTCACCTAGTGCAG", "binding signal": "4280 fluorescence intensity (a.u.)"}, {"sequence": "ATTAATGAATCTAGACATATATACATCATTATAAATGTGGCGGAGTCACCTAGTGCAG", "binding signal": "5760 fluorescence intensity (a.u.)"}, {"sequence": "AGGTGGCCCCATTAATTGATGATGAAATGCAAACCTAAATCGGAGTCACCTAGTGCAG", "binding signal": "9480 fluorescence intensity (a.u.)"}, {"sequence": "ACCATTATTCCACAATTATTCTCAATCTAGTAGGATGCTCCGGAGTCACCTAGTGCAG", "binding signal": "7530 fluorescence intensity (a.u.)"}, {"sequence": "CGATTTAATTCATTTTCAATGATTGGTTATCAAATGAATACGGAGTCACCTAGTGCAG", "binding signal": "19400 fluorescence intensity (a.u.)"}, {"sequence": "CTTGACGACGATTTCATGGTAAGAATATTTTGATTACATGCGGAGTCACCTAGTGCAG", "binding signal": "4670 fluorescence intensity (a.u.)"}, {"sequence": "GGCATTAAGAGACAGCAATCAGATTAACAAACCATCCAGGCGGAGTCACCTAGTGCAG", "binding signal": "5790 fluorescence intensity (a.u.)"}, {"sequence": "CTTAATAACTGGGATACCTCAATAATTTCAGATGGCTGCGCGGAGTCACCTAGTGCAG", "binding signal": "10600 fluorescence intensity (a.u.)"}, {"sequence": "ATAATTGGCATGTGTCACGTATCCAGTTTGGTATGGCAGTCGGAGTCACCTAGTGCAG", "binding signal": "41500 fluorescence intensity (a.u.)"}, {"sequence": "CAATAAACCGGTCTATCACCGTCCGATCCTTACCGACCTGCGGAGTCACCTAGTGCAG", "binding signal": "4190 fluorescence intensity (a.u.)"}, {"sequence": "TCTAATTTTAAATATATGACATTATTAACTTTTAAATATGCGGAGTCACCTAGTGCAG", "binding signal": "17700 fluorescence intensity (a.u.)"}, {"sequence": "TCTCTATAATTAAACATTCCAATTTCGAAAATGTTGTTAGCGGAGTCACCTAGTGCAG", "binding signal": "8580 fluorescence intensity (a.u.)"}, {"sequence": "GCTAATTATTCTTTCAGTTATAGGCATCGTACCCGTCGACCGGAGTCACCTAGTGCAG", "binding signal": "23300 fluorescence intensity (a.u.)"}, {"sequence": "GAAGTTAGTTTATCAATTAAGCATTTGGTTTAGGGATAAGCGGAGTCACCTAGTGCAG", "binding signal": "9300 fluorescence intensity (a.u.)"}, {"sequence": "CCATCACACAGATTAATTTGCTTCCATGCTAGGAATAAGTCGGAGTCACCTAGTGCAG", "binding signal": "10900 fluorescence intensity (a.u.)"}, {"sequence": "GTACTTGATCATGGATGATTAGGGCACTTGTGCGTGTGTTCGGAGTCACCTAGTGCAG", "binding signal": "11200 fluorescence intensity (a.u.)"}, {"sequence": "GAAATGGGCCTAATTGTCGGTCACATACCGAGTAAATGGGCGGAGTCACCTAGTGCAG", "binding signal": "4300 fluorescence intensity (a.u.)"}, {"sequence": "TCAGTACAAAACTAGATTAATTTGAAGGCAAAATTTGCTACGGAGTCACCTAGTGCAG", "binding signal": "6350 fluorescence intensity (a.u.)"}, {"sequence": "AATCAAATTGAAGTATCAGATGCAGCTTCAGGTTCTGGAGCGGAGTCACCTAGTGCAG", "binding signal": "19800 fluorescence intensity (a.u.)"}, {"sequence": "TGTTAAATTTTACATCTATGGACTGACAAATGAATATTTTCGGAGTCACCTAGTGCAG", "binding signal": "6780 fluorescence intensity (a.u.)"}, {"sequence": "TATATGATTTATTGAATCATTGATTTGTCACATATATCAACGGAGTCACCTAGTGCAG", "binding signal": "29000 fluorescence intensity (a.u.)"}, {"sequence": "CATTGATAGATTGCAAAAGCTAGCTGTCTGGGAGATGGTGCGGAGTCACCTAGTGCAG", "binding signal": "49500 fluorescence intensity (a.u.)"}, {"sequence": "TTAATGATAGGTACCTTTGGGGAGATATACAATAGTCGCTCGGAGTCACCTAGTGCAG", "binding signal": "7800 fluorescence intensity (a.u.)"}, {"sequence": "AACCAAAACAGCAACCAATCAACAAGCGATCGAGCACCTTCGGAGTCACCTAGTGCAG", "binding signal": "7160 fluorescence intensity (a.u.)"}, {"sequence": "CATAAACCTAGACGTTAATTATGATGTTTTGGACTAGGTTCGGAGTCACCTAGTGCAG", "binding signal": "16000 fluorescence intensity (a.u.)"}, {"sequence": "TCACCTTGATTTCAATCATTGGACAAGTGTCCTAGAAAGTCGGAGTCACCTAGTGCAG", "binding signal": "55300 fluorescence intensity (a.u.)"}, {"sequence": "ATGCAGTCCTTGATTGTTTTGGTGCATTAATTTGTGGATCCGGAGTCACCTAGTGCAG", "binding signal": "17800 fluorescence intensity (a.u.)"}, {"sequence": "TGCCACGTCAATCTATCATAACCGGCGGGATAAATCCAAACGGAGTCACCTAGTGCAG", "binding signal": "6830 fluorescence intensity (a.u.)"}, {"sequence": "CTAGTAGCTAATTAATTATTTGATGCTCATGGTGATGGTGCGGAGTCACCTAGTGCAG", "binding signal": "23000 fluorescence intensity (a.u.)"}, {"sequence": "TGAAGGAAGCTAATTACAGAATTAGCATACATGTTGCCGCCGGAGTCACCTAGTGCAG", "binding signal": "3940 fluorescence intensity (a.u.)"}, {"sequence": "AGATTTAATTGTAACGAACACAATGGTGTAATCGGATGGTCGGAGTCACCTAGTGCAG", "binding signal": "24100 fluorescence intensity (a.u.)"}, {"sequence": "ACATGCCCTTAATTGAAGCCACAAATTCCAGTCCAAATCCCGGAGTCACCTAGTGCAG", "binding signal": "19400 fluorescence intensity (a.u.)"}]}]}
